Laboratory results published in the supplement of paper PMC10126150.
Sequences with one replicate were seen in a single cluster, so their values are uncertain.

System: ATP
Assay: switch fluorescence ratio, 500 uM ATP over buffer (Cy3 cluster intensity, sum of 5 cycles each) (fold (ratio)); higher = stronger signal-on switching upon ATP binding; sequences stand for … in TCGTCGGCAGCGTCAGATGTGTATAAGAGACAGTTTTTTTTTTTTTTTTTTTTTTTTT…TC
Conditions: aptamer strand: ATP DNA aptamer (quencher-CACCTGGGGGAGTATTGCGGAGGAAGG + anchor), 100 nM annealed; ATP concentration: 500 uM; one replicate
Outline: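 Between each of five buffer/ATP cycles, the flow-cell was stripped with NaOH and re-annealed. Each cycle imaged Cy3-labelled switching-strand clusters, annealed to 100 nM quencher-labelled ATP aptamer on a modified Illumina MiSeq flow-cell, first in selection buffer and then after 15 min with 500 uM ATP at 22 °C. The fluorescence ratio is summed target-cycle over summed buffer-cycle Cy3 intensity per cluster, averaged per switch-domain sequence, with clusters outside 100-1000 RFU excluded.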
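Further: ATP exposure 15 min at 22 °C before imaging.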

Row | Sequence | switch fluorescence ratio
1 | AATCGCTTCT | 0.963
2 | TACAGGTGGG | 1.18
3 | CACGGTCGAA | 1.01
4 | TCCACTGCC | 1.42
5 | GAATTCGAG | 0.987
6 | AGGGGATCTG | 0.967
7 | CTGAACCCTA | 0.996
8 | CGGAACCTGT | 0.998
9 | ACAGCGGGGC | 1
10 | CCAGTATGAT | 1.01
11 | ATCGGCTATG | 1
12 | TTTTGTTTAA | 1.02
13 | TAAGATTAGA | 1.02
14 | TCCTTGTCTG | 1
15 | GCTTAATCTT | 1
16 | ATGACGATTT | 0.962
17 | CGTTCCAAAG | 1.12
18 | TCAACGAGCC | 1.05
19 | CATAAAAGTT | 1.02
20 | GTTAAATAG | 1.01
21 | TCACGCATAA | 2.13
22 | CCGTGGTTGC | 0.972
23 | AAGGCCTGGT | 1
24 | GGATTTGTGC | 0.961
25 | GAGGGACCTA | 0.992
26 | TACGTAGTTT | 0.998

Row | Sequence | switch fluorescence ratio
27 | TTGCTGCCCT | 0.955
28 | TAGTGTTTAT | 0.992
29 | CTGATGACA | 0.969
30 | AACTGATTTT | 1.03
31 | CCTGGAGTTT | 1.03
32 | AATCCATAGG | 1.01
33 | GTAGTTAGGC | 1.03
34 | GGATATTCGG | 1
35 | CCATTCGGAC | 1.02
36 | CAGAAAGAGG | 1.03
37 | GTGATCCGAG | 1.04
38 | CCGAAGACGC | 3.33
39 | AACTGGAGCA | 1.22
40 | GAGTAGAGCG | 0.982
41 | GGGTAGGGAG | 0.944
42 | CAGTAACCGC | 1.06
43 | GTTGACACCC | 1.16
44 | AAGGAAAGCA | 0.996
45 | TTGTAAGTGT | 0.957
46 | TTCGGGTCTT | 0.972
47 | TCACAGATGC | 1.08
48 | TGCCTCATAA | 1
49 | ATCGGTTTTC | 1.07
50 | AGCTGTCAAT | 1.04
51 | GAGTTCTACT | 0.99
52 | GCCGAGAATT | 1.02

Row | Sequence | switch fluorescence ratio
53 | CCAGCCCACA | 1.01
54 | CGACGACTTT | 1.15
55 | TACAAGCTGC | 1.01
56 | ATCCGGCTTG | 0.951
57 | CTATTGGGCA | 0.978
58 | GCGTTTCTCT | 0.983
59 | CAACAGATGC | 1.08
60 | AATGACCCGG | 0.973
61 | AAAGGCAACC | 1.05
62 | TTGAGTGAG | 0.947
63 | ATGAGACCTT | 1.22
64 | ATCAACTAAG | 0.974
65 | CGGGGCCTTG | 0.988
66 | CAAGAGTAAG | 0.999
67 | GGGATTCATC | 1
68 | GGTAGTTGTC | 0.994
69 | AGACCAGCGT | 1
70 | TATAAGGTGC | 1.4
71 | TAGATGAAGC | 1.03
72 | TAGACGGTCT | 1.05
73 | CAACCTGGG | 1.01
74 | TATGGGCCGA | 1.04
75 | TGTTATGCGG | 0.965
76 | CGCGGAATTT | 0.998
77 | GCTCGCCAGA | 1.03
78 | TTCTTATTT | 0.968

Row | Sequence | switch fluorescence ratio
79 | GCTTGCCTTT | 0.918
80 | TGGATATTAA | 0.976
81 | GGGGCATCGC | 0.935
82 | CACGCGGGCA | 0.997
83 | ACTTTGTTT | 0.963
84 | TTAATCTTC | 1.03
85 | TCAAAGATAC | 1.45
86 | AGACAGGTAG | 1.02
87 | GTGATACGTT | 0.987
88 | TGTAGACCCA | 0.955
89 | AATATTCGTC | 0.999
90 | TCGGCAGACT | 1.08
91 | CGAAAAAACC | 1.04
92 | ACTCAGAAGA | 1.04
93 | TAAGAGTTGC | 0.949
94 | CTATCTAAA | 0.901
95 | ATAAGGTGCG | 1.04
96 | GGGATATCGC | 0.975
97 | GAAACCTACT | 1.39
98 | GAGTGACTGG | 0.989
99 | TCGGCGGGTT | 1.02
100 | GCGTATTACT | 1.22
101 | CATTAGGGTA | 0.977
102 | CGAAAATTTT | 1.01
103 | GTAGCAATTG | 4.19
104 | AACGACCGGT | 1.01

Row | Sequence | switch fluorescence ratio
105 | TTCCTCTTTT | 1.03
106 | TTCTTCACAG | 0.985
107 | CCTAAACTTG | 1
108 | GCATGCTAA | 1.02
109 | TTAATCCATC | 0.989
110 | CTCTATTGCA | 1.05
111 | TGATGTTGGC | 1.26
112 | TACTGTCGGA | 1.01
113 | GTTTCAAAAA | 0.98
114 | GACCATTTCG | 0.988
115 | GCAGTGTAGC | 0.989
116 | CAGAGTAGGC | 0.952
117 | TGAACAATG | 1
118 | TTGAGACCCC | 0.985
119 | AGAGAGTGTT | 0.979
120 | GGGCGAAGTG | 0.955
121 | CTAGTCAAAT | 0.942
122 | AACCACCCTT | 1.07
123 | GAGCAGGTTC | 1.14
124 | GGTCAGCAAA | 0.977
125 | GGTCCATACT | 1
126 | GCGGTCACAT | 1
127 | AAATTGTCGC | 0.99
128 | TCGCTCATTT | 0.995
129 | TTAGAGTCA | 0.968
130 | TACCCCGGTT | 1.12

Row | Sequence | switch fluorescence ratio
131 | GGCCAAAACT | 1.01
132 | GCTTCCTTGC | 1.53
133 | ACGGCAGGCC | 1.04
134 | AGATACAC | 1.05
135 | CATGAGAGCG | 0.978
136 | TATCATCTCA | 1.05
137 | GGGCGGTGT | 1
138 | AGCATTGTTA | 0.953
139 | ATGTGCCTGG | 1.03
140 | CGTGGGGTAT | 1
141 | ACATGCAGGT | 0.994
142 | CCTCTTCGGT | 1.1
143 | TGCAAAGTAG | 1.03
144 | GATATACTA | 0.993
145 | CCCAACACCT | 1.27
146 | CTTAATTATT | 1.01
147 | CGTTAAAAT | 0.978
148 | AAGATGGATC | 1.01
149 | GCTTTCGATT | 0.987
150 | CATATATGG | 0.99
151 | TTGTTCAGGC | 0.987
152 | AATCCCCGCC | 1.77
153 | AGATCATTC | 0.969
